Measurements from PMC3516535, “Rhesus Macaque Theta Defensins Suppress Inflammatory Cytokines and Enhance Survival in Mouse Models of Bacteremic Sepsis” (PLoS ONE, 2012).

System: BALB/c mice challenged with E. coli K12
Conditions: mouse, in vivo

Compound: CC[C@H](C)[C@@H]1NC(=O)[C@@H]2CSSC[C@H](NC(=O)[C@H](CCCNC(=N)N)NC(=O)[C@@H]3CSSC[C@H](NC1=O)C(=O)N[C@@H]([C@@H](C)O)C(=O)N[C@@H](CCCNC(=N)N)C(=O)NCC(=O)N[C@@H](Cc1ccccc1)C(=O)N3)C(=O)N[C@@H](CC(C)C)C(=O)N[C@H]1CSSC[C@H](NC(=O)[C@H](C(C)C)NC(=O)CNC(=O)[C@H](CCCNC(=N)N)NC(=O)[C@H](CCCNC(=N)N)NC1=O)C(=O)N[C@@H](CCCNC(=N)N)C(=O)N2 [RTD-1] (cyclo(GFCRCLCRRGVCRCICTR); disulfide 3-16, 5-14, 7-12)
- plasma cytokine/chemokine levels in uninfected animals: unaltered
- decreases of plasma IL-1α, IL-1β and VEGF (sc, 5 mg/kg): statistically significant
- plasma cytokine/chemokine levels (IL-1α, IL-1β, IL-6, IL-10, CXCL1, CCL2, CCL3, CXCL5, TNF, VEGF) (sc, 5 mg/kg): reductions of all cytokines

Bridge positions count the residues as written; N and C are the ends. Peptide text beside a SMILES is read from it.
